Experimental data published in PubChem BioAssay AID1460 (National Center for Advancing Translational Sciences (NCATS), 2008).
In all, about 270,000 compounds went through this assay and about 5,800 (2.1%) were called active. This list was built around the results that the source calls inconclusive (neither active nor inactive); the mix of calls is not that of the screen. Calls come from the whole dose curve; as a rule, active = well fitted inhibition curve with a large enough effect; inconclusive = small, poorly fitted or top-dose-only effect; inactive = flat fitted curve, though single readings scatter. Potencies of inconclusive entries are doubtful fits and often do not repeat.

target: Microtubule-associated protein tau (Homo sapiens) (UniProt P10636); test: qHTS for Inhibitors of Tau Fibril Formation, Thioflavin T Binding; settings: recombinant tau K18 P301L, heparin-induced fibrillization, ThT fluorescence; series mostly up to 57.4 µM; note: nearly all actives have a fitted effect of over 55% in size
Sequence of UniProt P10636 (P10636 whole entry, looked up): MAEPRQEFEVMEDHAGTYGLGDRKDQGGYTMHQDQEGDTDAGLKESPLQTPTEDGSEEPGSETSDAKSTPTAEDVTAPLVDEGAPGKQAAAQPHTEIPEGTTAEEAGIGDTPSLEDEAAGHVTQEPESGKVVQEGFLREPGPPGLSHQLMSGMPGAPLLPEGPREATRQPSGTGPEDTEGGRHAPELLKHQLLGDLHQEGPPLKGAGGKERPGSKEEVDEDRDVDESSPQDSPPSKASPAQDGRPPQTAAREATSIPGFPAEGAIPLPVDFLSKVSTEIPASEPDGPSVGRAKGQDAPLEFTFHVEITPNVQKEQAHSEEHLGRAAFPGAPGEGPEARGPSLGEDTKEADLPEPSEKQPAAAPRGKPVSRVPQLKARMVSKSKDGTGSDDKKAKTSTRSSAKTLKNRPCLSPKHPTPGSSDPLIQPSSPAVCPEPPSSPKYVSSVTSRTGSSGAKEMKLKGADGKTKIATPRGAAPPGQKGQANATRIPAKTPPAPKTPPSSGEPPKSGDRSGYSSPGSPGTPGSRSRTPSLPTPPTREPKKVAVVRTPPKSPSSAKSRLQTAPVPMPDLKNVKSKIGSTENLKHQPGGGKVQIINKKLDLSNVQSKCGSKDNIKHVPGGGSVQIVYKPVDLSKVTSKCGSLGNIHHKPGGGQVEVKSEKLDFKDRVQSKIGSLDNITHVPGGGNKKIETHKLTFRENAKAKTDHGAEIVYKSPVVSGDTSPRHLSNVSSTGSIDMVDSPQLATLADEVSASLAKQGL
Method in brief: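 Using a mix of unlabeled (15 uM) and Alexa 594-labeled (0.24 uM) tau K18 P301L, heparin-triggered fibrillization over 6 hr at 37 C was scored by ThT fluorescence.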
Potency is the fitted concentration of half-maximal effect; tags give direction and shape of the fitted curve.

Compound	Potency
O=S(=O)(c1ccccc1)c1nc(-c2ccc(Cl)cc2Cl)oc1N1CCCCCC1	inactive
COc1ccc(C)cc1-n1nnnc1SCn1nnc2ccccc2c1=O	inactive
CCc1ccc(/C=C/C(=O)c2cc(Br)ccc(=O)c2O)cc1	active: 15.8 µM
Fc1ccc(F)c(NC(=S)NCCc2ccccc2)c1	inactive
Cc1ccsc1/C=C1\SC(=S)N(CC2CCCO2)C1=O (stereo not drawn)	inconclusive: 22.4 µM [inhibitor, single point]
Cc1nc(SCC(=O)NCc2ccco2)c2c3c(sc2n1)CCCC3	inconclusive: 28.2 µM [inhibitor, single point]
CCOC(=O)N1CCN(S(=O)(=O)c2ccc(C(=O)Nc3nnc(C)o3)cc2)CC1	inactive
CNc1oc(C)nc1S(=O)(=O)c1ccc(C)cc1	inconclusive: 39.8 µM [inhibitor, single point]
Cc1ccc(NC(=S)Nc2ccc3[nH]c(=O)[nH]c3c2)cc1C	inconclusive: 1 µM [inhibitor, partial curve, poor fit]
O=C(/C=C/Nc1ccc(F)cc1)c1ccc(Oc2ncccn2)cc1	inconclusive: 28.2 µM [inhibitor, partial curve, poor fit]
CCCS(=O)(=O)c1ncc(Cl)c(C(=O)Nc2scc(-c3ccccc3)c2C(=O)OCC)n1	active: 7.94 µM
Cc1cc(C)cc(N2CCn3c2nc2c3c(=O)n(Cc3ccc(Cl)cc3)c(=O)n2C)c1	inactive
O=C(CCCCCn1c(SCc2ccncc2)nc2ccccc2c1=O)NCc1ccco1	inactive
COc1ccc(C2NC(=O)CS2)cc1 (stereo not drawn)	inactive
CCOc1ccc(-n2c(C)nc3cc(C(=O)NCCC4=CCCCC4)ccc32)cc1	inconclusive: 6.31 µM [inhibitor, partial curve]
N/C(=N\S(=O)(=O)c1cc(C(F)(F)F)cc(C(F)(F)F)c1)c1ccc(Cl)cc1	inactive
O=C(N/N=C/c1ccc(O)cc1)c1cc[n+](Cc2ccccc2)cc1	inconclusive: 17.8 µM [inhibitor, partial curve]
CCCN(C(=O)CSc1cc(-c2ccccc2)c2ccc(OC)cc2n1)C1CCS(=O)(=O)C1 (stereo not drawn)	inconclusive: 39.8 µM [inhibitor, single point]
O=C(CCCn1c(=O)c2cccn2c2cccnc21)NCc1ccc(F)cc1	inconclusive: 22.4 µM [inhibitor, single point]
COc1nc(-c2ccccc2)ccc1-c1noc(C)n1	inconclusive: 3.16 µM [inhibitor, full curve]
COc1ccc(-c2nc(Cn3c(SCc4ccc(C)cc4)nc4cccnc43)c(C)o2)cc1OC	inconclusive: 39.8 µM [inhibitor, single point]
O=C(COc1ccc(Cl)cc1)N1CCN(S(=O)(=O)c2ccccc2)CC1	inactive
COc1cccc2c1cc1c(=O)n(CC(=O)N3CCN(c4cc(Cl)ccc4C)CC3)nc(C)n12	inconclusive: 14.1 µM [inhibitor, partial curve]
COc1ccc(O)c(/C=N/NC(=O)c2c(C)nnn2-c2nonc2N)c1	inactive
COc1cc(/C=N/Nc2nc(Nc3ccc(C)cc3)nc(-n3nc(C)cc3C)n2)cc(OC)c1OC	inconclusive: 1.78 µM [inhibitor, full curve, poor fit]

Compound	Potency
Cn1c(N2CCCC2)nc2c1c(=O)n(Cc1ccc(Cl)cc1)c(=O)n2C	inconclusive: 31.6 µM [inhibitor, single point]
CCCC(=O)N1CCN(c2ccc(NC(=S)NC(=O)CC)cc2)CC1	inconclusive: 10 µM [inhibitor, partial curve, poor fit]
CC1=NN(c2ccc(F)cc2)C(=O)C1C(c1cccc(O)c1)c1c(C)[nH]n(-c2ccc(F)cc2)c1=O (stereo not drawn)	inconclusive: 17.8 µM [inhibitor, partial curve]
CCOc1ccc(C2=NC(c3cccs3)=Nc3ccc(C(C)C)cc3N2)cc1	inconclusive: 14.1 µM [inhibitor, partial curve]
COc1ccc(C(=O)Oc2cccnc2)cc1OC	inactive
O=C(CN1CCN(CC(=O)Nc2ccccc2Cl)CC1)Nc1ccc2c(c1)OCCO2	inactive
CCN(CC)c1cc2c(cc1F)c(=O)c(S(=O)(=O)c1cc(C)ccc1C)cn2Cc1ccccc1	inactive
CCOC(=O)c1cnc(SCc2nc(N)nc(Nc3ccc(OC)cc3)n2)nc1N	inconclusive: 17.8 µM [inhibitor, partial curve]
CCN(CC)S(=O)(=O)c1ccc(NC(=S)NC(=O)C(C)C)cc1	inactive
CN(Cc1ccccc1)S(=O)(=O)c1ccc(F)c(C(=O)Nc2cccc(Cl)c2Cl)c1	inactive
C=CCN=C1CCCc2c1[nH]c1ccc(C)cc21	inconclusive: 25.1 µM [inhibitor, partial curve]
COc1ccc(-c2nc3sc(CCNC(=O)c4cc(Cl)ccc4OC)c(C)n3n2)cc1	inconclusive: 1 µM [inhibitor, full curve]
CC(C)COC(=O)c1ccc2c(c1O)C(=O)c1ccccc1C2=O	active: 12.6 µM
O=C(Cc1ccccc1)Nc1ccccc1N1CCN(c2ccccc2)CC1	inconclusive: 28.2 µM [inhibitor, partial curve]
Cc1ccccc1NS(=O)(=O)c1ccc(Br)s1	inactive
Cc1oc2c(cc(NS(=O)(=O)c3ccc4c5c(cccc35)C(=O)N4)c3ccccc32)c1C(=O)OC(C)C	inconclusive: 10 µM [inhibitor, partial curve]
CC1=NN(c2nc(-c3ccc(Cl)cc3)cs2)C(=O)C1	active: 11.2 µM
CNc1ccc([N+](=O)[O-])cc1-c1nc2ccccc2[nH]c1=O	inconclusive: 12.6 µM [inhibitor, partial curve]
CCOC(=O)C1CCN(C(=O)COC(=O)CNC(=O)c2ccc(OC)cc2)CC1	inactive
COc1ccc(C(N)=S)cc1	inactive
COc1ccc2nc(C)cc(Sc3nc4ccccc4s3)c2c1	inconclusive: 15.8 µM [inhibitor, partial curve]
CC(NS(=O)(=O)c1ccccc1)C(=O)NCc1ccco1 (stereo not drawn)	inconclusive: 25.1 µM [inhibitor, partial curve]
Cc1c(Cl)cn2c(=O)cc(CN3CCN(c4ccc(F)cc4)CC3)nc2c1Cl	inconclusive: 15.8 µM [inhibitor, partial curve]
Cc1ccc(C(=O)Nc2ccc(O)c(C(=O)O)c2)o1	inconclusive: 8.91 µM [inhibitor, partial curve, poor fit]
O=c1c(OC2OC(CO)C(O)C(O)C2OC2OC(CO)C(O)C(O)C2OC2OC(CO)C(O)C(O)C2O)c(-c2ccc(O)c(O)c2)oc2cc(O)cc(O)c12 (stereo not drawn)	inconclusive: 25.1 µM [inhibitor, single point]

Compound	Potency
CCn1c2ccccc2c2cc(/C=N/NC(=O)c3ccncc3)ccc21	inconclusive: 1 µM [inhibitor, partial curve]
Nc1cc(-c2ccc(Br)cc2)nc2cc(-c3ccccc3)nn12	inconclusive: 14.1 µM [activator, partial curve]
COc1ccc(C(=O)Nc2ccc(S(=O)(=O)Nc3nccc(C)n3)cc2)cc1OC	inactive
CC1=NN(C(N)=S)C(=O)C1N=Nc1ccccc1C (stereo not drawn)	active: 10 µM
Cc1ccc(-n2cc(CN(C)Cc3ncc[nH]3)c(-c3cccc(C)c3)n2)cc1	inactive
CCCSc1nc(C)cc(C)c1S(=O)(=O)c1ccccc1C	inconclusive: 22.4 µM [inhibitor, partial curve]
COc1ccccc1N1CCN(c2ncnc3c2cnn3C)CC1	inactive
Oc1ccc(/C=N/N(Cc2ccccc2)c2ccccc2)c(O)c1O	active: 28.2 µM
CCOc1ccc2nc(N3CCC(C(=O)N4CCN(C(=O)c5ccco5)CC4)CC3)sc2c1	inconclusive: 17.8 µM [inhibitor, partial curve]
CC(=O)c1c(N2CCN(c3cccc(Cl)c3)CC2)nc(=S)n(-c2ccccc2)c1C	inactive
COc1ccccc1NS(=O)(=O)c1ccc2oc(SCc3ccc(F)cc3)nc2c1	inactive
Cc1cc(N2CCN(S(=O)(=O)c3ccc(Br)cc3)CC2)n2ncnc2n1	inactive
COC(=O)c1ccc(NC(=O)CN2CCN(c3ccc(Cl)cc3)CC2)cc1	inconclusive: 28.2 µM [inhibitor, partial curve]
O=C1CC(c2ccccc2)Cc2[nH]c(=O)c(C(=O)Nc3cccc(Cl)c3)cc21 (stereo not drawn)	inactive
Cc1ccc(N(C)C(=O)C2CCN(S(=O)(=O)c3ccc4c(c3)CCCN4C(=O)C3CCC3)CC2)cc1	inactive
CCOC(=O)c1nnc2cc(-c3ccccc3)nn2c1C	inconclusive: 22.4 µM [inhibitor, partial curve]
Cc1[nH]n(-c2ccccc2)c(=O)c1/C=N/O	inactive
CC1(C)CN=C(N(C(=O)Nc2ccccc2)c2ccccc2F)S1	inactive
COc1ccc(S(=O)(=O)N2CCC(n3c(C(F)(F)F)nc4cccnc43)CC2)cc1OC	inactive
COc1ccc(OC)c(NC(=O)Cc2coc3ccc4ccccc4c23)c1	inconclusive: 28.2 µM [inhibitor, single point]
CCCCCCOC(=O)C(C#N)c1nc2ccccc2nc1N1CCN(C)CC1 (stereo not drawn)	inconclusive: 22.4 µM [inhibitor, single point]
COC(=O)c1cc(-c2ccc(Cl)cc2)n[nH]1	inconclusive: 7.94 µM [inhibitor, full curve]
COc1ccc(C(=O)NNC(=S)NC(=O)c2ccc(Br)o2)cc1OC	inconclusive: 0.0562 µM [activator, full curve, poor fit]
